Assay results from patent US5632988A, “Polypeptide inhibitors of gamma interferon” (Schering Corporation, priority 1992, dated 1997).
At least one peptide structure holds a part that was inferred or is arguable (an end, a ring closure or a residue). Ends that are not written are not given here.

Columns and labels:
[1] = tested on: antiviral effects of recombinant human gamma interferon D; experiment: Inhibition of antiviral effects of recombinant human gamma interferon D on human diploid foreskin cells challenged with encephalomyocarditis virus (CPE scoring); format: cell-based; settings: constant 150 pM interferon
Procedure: Control Medium A, various dilutions in Medium A of recombinant human gamma Interferon D in the presence of a fixed concentration of polypeptide No. I, or various dilutions of Medium A of polypeptide No. III in the presence of a fixed concentration of the interferon were pipetted in 0.1 ml total volumes into the wells of 96-well flat bottom microtiter plates.
Aliquots of a suspension of human diploid foreskin cells (0.1 ml, 3.5×10^5 cells/ml) in Medium A were pipetted into the wells of the microtiter plates, and the plates were incubated for 4 hours in a 37° C., 5% CO2 incubator. […]
A 0.025-0.05 aliquot of a solution of crystal violet stain (Sigma Chemical Co., St. Louis, Mo.; 0.485% in an aqueous solution containing 3.2% formaldehyde and 32.3% 95% ethanol) was added to each well, and the plates were allowed to stand for 30 minutes for color development. The stain solution was removed and the wells were washed at least three times with distilled water, after which the plates were scored for CPE with the aid of a fluorescent light viewer.
CPE was graded semi-quantitatively on a scale of 0 to 4, with grade O CPE corresponding to a complete absence of cell lysis as measured by cell staining with crystal violet and grade 4 CPE corresponding to total cell lysis and lack of staining.

[2] = biological target: T1, gamma interferon receptors on Daudi cells (Homo sapiens, UniProt P15260); experiment: Inhibition of the binding of 125I-recombinant human gamma interferon to Daudi cells (radioligand-receptor assay); settings: for Ki: specific binding of 125I-recombinant human gamma interferon to Daudi cells, 2 hours at 4° C., Cheng et al. method
T1 construct: host or cells: Daudi cells (human B lymphoblast, Burkitt lymphoma)
T1 sequence (P15260 18-489): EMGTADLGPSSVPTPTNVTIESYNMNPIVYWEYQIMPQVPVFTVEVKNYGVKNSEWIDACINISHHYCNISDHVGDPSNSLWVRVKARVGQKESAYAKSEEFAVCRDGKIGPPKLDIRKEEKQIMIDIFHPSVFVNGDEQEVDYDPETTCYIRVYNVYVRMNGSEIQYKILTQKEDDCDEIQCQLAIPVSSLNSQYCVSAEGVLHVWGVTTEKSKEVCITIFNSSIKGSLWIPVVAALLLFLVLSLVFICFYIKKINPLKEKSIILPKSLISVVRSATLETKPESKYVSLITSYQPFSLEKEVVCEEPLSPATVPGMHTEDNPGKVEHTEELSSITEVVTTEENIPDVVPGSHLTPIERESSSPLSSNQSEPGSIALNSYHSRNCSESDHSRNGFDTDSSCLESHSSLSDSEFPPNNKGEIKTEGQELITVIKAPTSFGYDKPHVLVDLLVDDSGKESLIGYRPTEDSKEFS
Procedure: The receptor assay employed a standard mixture of 6×10^5 Daudi cells in 1 ml of binding medium (RPMI 1640 medium, 10% fetal bovine serum, 0.02% sodium azide) containing 200,000 cpm of the labeled interferon. Controls additionally contained 1 μg of unlabeled interferon to determine nonspecific binding. Assays were carried out by adding 0.1 ml aliquots of binding medium with or without varying amounts of a potentially inhibitory polypeptide or protein to the standard mixtures, and incubating the combined mixtures for 2 hours at 4° C.
Following the incubation, the cells were pelleted by centrifugation at 13,000× g for 30 seconds at 4° C, and the supernatants were discarded. The cells were resuspended in 0.2 ml of fresh binding medium without labeled interferon at 4° C., after which the cells were centrifuged at 13,000× g for 2 minutes through a layer of dibutyl phthalate and dioctyl phthalate [0.2 ml of a 1:1 (vol/vol) mixture] to remove residual labeled interferon that was not specifically bound. Inhibition constants (Ki) were calculated according to the method of Cheng et al. [Biochem. Pharmacol. 22:3099 (1973)], in which [formula] where [L] is the ligand concentration and IC50 is the concentration of inhibitor required to decrease binding by 50%.

[3] = tested on: induction of class II major histocompatibility antigens (HLA-DR) by recombinant human gamma interferon D; experiment: Bio-ELISA for inhibition of gamma interferon-induced HLA-DR expression in COLO-205 cells; format: cell-based

RRKWQ [Polypeptide III, Arg-Arg-Lys-Trp-Gln]
cell protection / CPE ([1]; 10 μM polypeptide): complete protection | CPE grade ([1]; 105 μM polypeptide (highest concentration), scale 0 to 4): 4 | Ki [2]: 9.6 µM | shift of the interferon dose-response curve (interferon concentration needed for maximal induction) ([3]; 50 μM polypeptide): about a ten-fold higher interferon concentration | inhibition of HLA-DR antigen induction ([3]; constant 63 pM interferon, polypeptide 4 to 115 μM): progressively greater inhibition

AKKLSKDRMKKYMARRKWQKTGHAV [Polypeptide I]
Bmax of labeled interferon in the presence of polypeptide (Scatchard analysis) ([2]; 5 μM polypeptide, Daudi cells): remained essentially unaffected | inhibition of the binding of the labeled interferon (in words; type of inhibition) ([2]; Daudi cells, FIGS. 1-4): competitive type of inhibition | Ki [2]: 3.1 µM

RRKWAKTGHAV [Polypeptide IX, Arg-Arg-Lys-Trp-Ala-Lys-Thr-Gly-His-Ala-Val]
Ki [2]: > 180 µM

RMKKYMARRKWQ [Polypeptide V, Arg-Met-Lys-Lys-Tyr-Met-Ala-Arg-Arg-Lys-Trp-Gln]
Ki [2]: 16 µM

KKYMARRKWQ [Polypeptide IV, Lys-Lys-Tyr-Met-Ala-Arg-Arg-Lys-Trp-Gln]
Ki [2]: 10 µM

KRKWQKTGHAVIGRL [Polypeptide VIII, Lys-Arg-Lys-Trp-Gln-Lys-Thr-Gly-His-Ala-Val-lle-Gly-Arg-Leu]
Ki [2]: 180 µM

AKKLSKDRMKKYMA [Polypeptide X, Ala-Lys-Lys-Leu-Ser-Lys-Asp-Arg-Met-Lys-Lys-Tyr-Met-Ala]
Ki [2]: 404 µM

RRKAQKTGHAV [Polypeptide VI, Arg-Arg-Lys-Ala-Gln-Lys-Thr-Gly-His-Ala-Val]
Ki [2]: 43 µM

KKYMARRKWQKTGHAV [Polypeptide II, Lys-Lys-Tyr-Met-Ala-Arg-Arg-Lys-Trp-Gln-Lys-Thr-Gly-His-Ala-Val]
Ki [2]: 4 µM

KKYMA [Polypeptide VII, Lys-Lys-Tyr-Met-Ala]
Ki [2]: > 53 µM
